Converted amounts (≈) assume the structure as drawn.
How the values were obtained:
Rhizopus stolonifer = experiment: NCCLS broth macro-dilution MIC/MFC (RPMI); format: cell-based; conditions: Table 10, 7 day, 30° C.
Enterobacter aerogenes = experiment: NCCLS broth microdilution MIC/MBC; format: cell-based; conditions: Table 9, 35° C., 24 hours

Q: How did the MIC (Rhizopus stolonifer; Rhizopus stolonifer, 168 h) turn out when `C/C(=C\c1ccc2c(c1)OCO2)[N+](=O)[O-]` [Compound (1)] was run?
A: 4 µg/mL (≈ 19.3 µM)

Q: And the MMC (Rhizopus stolonifer)?
A: 16 µg/mL

Q: And the MIC (Enterobacter aerogenes; Klebsiella aerogenes)?
A: 512 µg/mL (≈ 2470 µM)

Q: What about the MMC (Enterobacter aerogenes) of the same molecule?
A: 512 µg/mL
